Test results taken from the supplement of paper PMC11417369.
Some of the results follow.

What follows are sequences tested on PfSIP2 AP2 domain 1 (GST-tagged) (assay: gcPBM binding intensity (ln(normalized median fluorescence intensity)); higher = stronger DNA binding).
In short: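 Binding intensity is the highest Masliner-normalised natural-log median intensity over replicate spots in either probe orientation. To obtain it, GST-tagged P. falciparum DNA-binding domains made in E. coli were incubated for 1 h on an Agilent 4 × 180k array of primer-extended double-stranded 36-bp intergenic genomic probes plus negative controls. Detection used Alexa488 anti-GST antibody with scanning at 488 nm.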

Sequence	gcPBM binding intensity (ln)
TAATTTACACCTACGTGTACACACAAAAATATGTTT [XGTACX_site1868]	7.3
TTTATTATCAAGATTGCACACCCTTATGAACTTTTT [CACACA_site3166]	7.23
ACAAAAAAAAAGGAAACACACAAAAAAAAAAAATAA [CACACA_site3523]	6.88
ACCTATAAAAAATAATGTACAGGAAGAAATATAAGG [XGTACX_site5822]	7.4
ACTATATTTCTATAATGTACAAAAATAAATCATATG [XGTACX_site3337]	7.11
AAGATCATATATTCGTGGGTATAAAAAGTTATAATA [TGCATGCA_negctrl_site439]	6.85
AGAAATATGTTGAAGCATTTATAATGTAGATATAAG [GTGCAC_negctrl_site640]	7.02
AAAAAAAAAAAAAATACACACAAACACAAATTAAAT [CACACA_site5982]	7.24
GTAATATTATAATATACACACATAGAATATATATAT [CACACA_site413]	8.6
TGTTTACACTTTTTTTGTACACATAATTTTATTTGA [XGTACX_site3760]	7.1
AAAAAAAAAAAAAACACACACATATAACATATTTAA [CACACA_site6745]	7.33
TATTCTAGTCTGCTTACACACATATTTATATTTATA [CACACA_site7432]	7.25
TAATATTTTATTTTTGTTGTGGATCCAAAAAAAAAA [CACACA_negctrl_site846]	6.84
CTATATATTTAAAAAAGTACAAATATAAAAATATAT [XGTACX_site676]	7.09
ATTTTTTTTAAACGAAGTACAATTTGTGCATTGGAA [XGTACX_site8109]	7.39
TTTTTTTTTTTTGTAGTGCAAATTAAAAATATATGT	8.09
TATATATATATATATGTATGCATGTCCTTTTTTATT [TGCATGCA_site344]	9.1
TGTTTATCATATTTGTGTCCTCATTTTTTAGTATCA [XGTACX_site947]	6.98
ATTTTTTTTTTTTTTTTTTTTTTTTTTTTTTTATGC [CACACA_negctrl_site1018]	6.98

Sequence	gcPBM binding intensity (ln)
TTATTTCTTCAGAAAAAATTAAAAAATTAAACAATA [CACACA_negctrl_site169]	6.76
TATGTTCCGAAGGTTGTACACACATAGAAATATACA [CACACA_site9285]	7.08
GGGAGGATATTACACAGTACCCAGGAAATCTACGGA [XGTACX_site4874]	6.99
TTTTTTTTTTTTGTAACATGCAAACAACAATATGGG [TGCATGCA_site695]	7.33
ATGTAATTGTATACATGTACGCAAACACAAAAGCAT [XGTACX_site6771]	7.24
AAGGAAAAAACAAATACACACAAAAACGCATTATAA [CACACA_site3466]	6.82
ATGAACTTATTTTAGTGTACTAAAAAATATGACTTC [XGTACX_site470]	6.99
TACATAATTTTAATCACACACAAACAAACACATACA [CACACA_site194]	7.38
GTAAGTATATATAATAGTACATATATATTAATATAT [XGTACX_site4314]	7.18
TTTTGTTCATACAAATTGGAACAAGACAAAAATATA [XGTACX_negctrl_site327]	7.16
TATCATTTTGAAGTATGTACTTATTTTATTAAAATA [XGTACX_site7784]	6.97
ATTATATTAAAATATTCACACACTAACGTAAATCAT [CACACA_site8887]	6.78
TAAATACATAAATACACACACATATATATATATATA [CACACA_site5549]	9.79
TAGGTCATATTTTTTGCACACAAAAAAAAATATAAA [CACACA_site3380]	7.29
TTTTTCCAATCAGATGCATGTTACTATATTTGGTTC [TGCATGCA_site52]	6.9
CACCTCAATATTCACATACACACAATATCATCGAAG [CACACA_site1675]	7.33
TGTATAAGGTTTTTACGTTTTGAAGGATGTATTGTT [CACACA_negctrl_site1245]	7
CGTAGCCGCACTAACACACACAAATATACGCAATCA [CACACA_site2898]	7.64
AAAAAAAAAAAAAATAATAAATAAATAAATAAATAA [GTGCAC_negctrl_site505]	7.38

Sequence	gcPBM binding intensity (ln)
AAAAATAAAAAAAAATTAAAATATATATATTTTGTT [TGCATGCA_negctrl_site102]	6.79
AACATATTTATATACACACACATATTTATATGAAAT [CACACA_site6268]	7.2
GAGAGGATACATACATGTACATAAATATTTTATTTT [XGTACX_site5129]	7.06
AGGAAAAAAAGTAGCACACAAATATTTATAATATAT [CACACA_site2437]	7
ATATTTTGGGTGTTGTTTTTTTTTAAAACTCTTTAA [CACACA_negctrl_site1255]	7.14
ATTAGTTTATATGAATGATTTTTCTTTTTTTTTTTT [CACACA_negctrl_site88]	6.75
TTACTATTTCACTGTGCATGCAACAAAAATCTATCT [TGCATGCA_site808]	8.34
TTTGATTTTAATGTGTGTACACATTTATTTATATAA [XGTACX_site4806]	7.74
GATTTATATTTTAAAAGTACAAGTTAAAATAAAAGT [XGTACX_site7059]	7.7
AATATAAGATTATTATGTACATAATAAATATGTATT [XGTACX_site4773]	6.84
ATATAAGTATAATTATGTACTTATACTTATATAAAT [XGTACX_site5585]	7.02
ATATAATATCTGTATACACACATATTATATAATATT [CACACA_site5940]	6.93
TTTTTTTTTTTGGTTACACACATTTGTATATTCTCA [CACACA_site134]	7.05
CATATTAATACAGAATGTACGGATAACAAACTGTTT [XGTACX_site7935]	6.8
ATAATTATATGATGAGTGCACAATAAAAATATCGTT [GTGCAC_site9920]	10.7
GGTCATCATCGGTATTGTACAAAAATGTGAAAATTA [XGTACX_site639]	7.59
TTTTATTTAGGAGGTGCATGTAATACGGAACATAAT [TGCATGCA_site827]	11.2
CCATAACTCCTATGCACACATAAATATTACAGAGAT [CACACA_site5984]	7.54
